Laboratory results reported in the supplement of paper PMC8728848.
The list shows a part of the results.

Tests used:
Assay in all cases: glycan array binding signal (z-score within array); higher = stronger binding
Conditions in all cases: glycan notation: IUPAC condensed, linker removed
[1] = biological target: Gal(b1-4)GlcNAc(b1-2)[Gal(b1-4)GlcNAc(b1-6)]Man(a1-6)[GlcNAc(b1-4)][Gal(b1-4)GlcNAc(b1-2)Man(a1-3)]Man(b1-4)GlcNAc(b1-4)GlcNAc
Procedure, shortened: (§1)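 The binding signal is a Z-score computed within each array. Data were drawn from 3228 arrays in the Consortium for Functional Glycomics database, restricted to those with a known protein sequence. Scores were averaged over arrays of the same protein sequence at different concentrations or buffers, and over linkers, and negative values can be taken as non-binding.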

[2] = biological target: Gal(b1-4)GlcNAc(b1-2)[Gal(b1-4)GlcNAc(b1-6)]Man(a1-6)[GlcNAc(b1-4)][Gal(b1-4)GlcNAc(b1-2)[Gal(b1-4)GlcNAc(b1-4)]Man(a1-3)]Man(b1-4)GlcNAc(b1-4)[Fuc(a1-6)]GlcNAc
Procedure, shortened: as §1

[3] = biological target: Gal(b1-4)GlcNAc(b1-3)Gal(b1-3)GalNAc
Procedure, shortened: as §1

[4] = biological target: Gal(b1-4)GlcNAc(b1-3)Gal(b1-3)GlcNAc
Procedure, shortened: as §1

[5] = biological target: Gal(b1-4)GlcNAc(b1-3)Gal(b1-4)Glc
Procedure, shortened: as §1

[6] = biological target: Gal(b1-4)GlcNAc(b1-3)Gal(b1-4)GlcNAc
Procedure, shortened: as §1

[7] = biological target: Gal(b1-4)GlcNAc(b1-3)Gal(b1-4)GlcNAc(b1-2)Man(a1-3)[Gal(b1-4)GlcNAc(b1-3)Gal(b1-4)GlcNAc(b1-2)Man(a1-6)]Man(b1-4)GlcNAc(b1-4)GlcNAc
Procedure, shortened: as §1

[8] = biological target: Gal(b1-4)GlcNAc(b1-3)Gal(b1-4)GlcNAc(b1-2)Man(a1-3)[Gal(b1-4)GlcNAc(b1-3)Gal(b1-4)GlcNAc(b1-2)Man(a1-6)]Man(b1-4)GlcNAc(b1-4)[Fuc(a1-6)]GlcNAc
Procedure, shortened: as §1

[9] = biological target: Gal(b1-4)GlcNAc(b1-3)Gal(b1-4)GlcNAc(b1-2)[Gal(b1-4)GlcNAc(b1-3)Gal(b1-4)GlcNAc(b1-6)]Man(a1-6)[Gal(b1-4)GlcNAc(b1-3)Gal(b1-4)GlcNAc(b1-2)Man(a1-3)]Man(b1-4)GlcNAc(b1-4)GlcNAc
Procedure, shortened: as §1

[10] = biological target: Gal(b1-4)GlcNAc(b1-3)Gal(b1-4)GlcNAc(b1-2)[Gal(b1-4)GlcNAc(b1-3)Gal(b1-4)GlcNAc(b1-6)]Man(a1-6)[Gal(b1-4)GlcNAc(b1-3)Gal(b1-4)GlcNAc(b1-2)Man(a1-3)]Man(b1-4)GlcNAc(b1-4)[Fuc(a1-6)]GlcNAc
Procedure, shortened: as §1

[11] = biological target: Gal(b1-4)GlcNAc(b1-3)Gal(b1-4)GlcNAc(b1-3)Gal(b1-4)GlcNAc
Procedure, shortened: as §1

[12] = biological target: Gal(b1-4)GlcNAc(b1-3)Gal(b1-4)GlcNAc(b1-3)Gal(b1-4)GlcNAc(b1-2)Man(a1-3)[Gal(b1-4)GlcNAc(b1-3)Gal(b1-4)GlcNAc(b1-3)Gal(b1-4)GlcNAc(b1-2)Man(a1-6)]Man(b1-4)GlcNAc(b1-4)GlcNAc
Procedure, shortened: as §1

[13] = biological target: Gal(b1-4)GlcNAc(b1-3)Gal(b1-4)GlcNAc(b1-3)Gal(b1-4)GlcNAc(b1-2)Man(a1-3)[Gal(b1-4)GlcNAc(b1-3)Gal(b1-4)GlcNAc(b1-3)Gal(b1-4)GlcNAc(b1-2)Man(a1-6)]Man(b1-4)GlcNAc(b1-4)[Fuc(a1-6)]GlcNAc
Procedure, shortened: as §1

[14] = biological target: Gal(b1-4)GlcNAc(b1-3)Gal(b1-4)GlcNAc(b1-3)Gal(b1-4)GlcNAc(b1-2)[Gal(b1-4)GlcNAc(b1-3)Gal(b1-4)GlcNAc(b1-3)Gal(b1-4)GlcNAc(b1-6)]Man(a1-6)[Gal(b1-4)GlcNAc(b1-3)Gal(b1-4)GlcNAc(b1-3)Gal(b1-4)GlcNAc(b1-2)Man(a1-3)]Man(b1-4)GlcNAc(b1-4)[Fuc(a1-6)]GlcNAc
Procedure, shortened: as §1

[15] = biological target: Gal(b1-4)GlcNAc(b1-3)Gal(b1-4)GlcNAc(b1-3)Gal(b1-4)GlcNAc(b1-3)Gal(b1-4)GlcNAc(b1-2)Man(a1-3)[Gal(b1-4)GlcNAc(b1-3)Gal(b1-4)GlcNAc(b1-3)Gal(b1-4)GlcNAc(b1-3)Gal(b1-4)GlcNAc(b1-2)Man(a1-6)]Man(b1-4)GlcNAc(b1-4)GlcNAc
Procedure, shortened: as §1

[16] = biological target: Gal(b1-4)GlcNAc(b1-3)Gal(b1-4)GlcNAc(b1-3)Gal(b1-4)GlcNAc(b1-3)Gal(b1-4)GlcNAc(b1-2)Man(a1-3)[Gal(b1-4)GlcNAc(b1-3)Gal(b1-4)GlcNAc(b1-3)Gal(b1-4)GlcNAc(b1-3)Gal(b1-4)GlcNAc(b1-2)Man(a1-6)]Man(b1-4)GlcNAc(b1-4)[Fuc(a1-6)]GlcNAc
Procedure, shortened: as §1

[17] = biological target: Gal(b1-4)GlcNAc(b1-3)Gal(b1-4)GlcNAc(b1-3)Gal(b1-4)GlcNAc(b1-3)Gal(b1-4)GlcNAc(b1-2)[Gal(b1-4)GlcNAc(b1-3)Gal(b1-4)GlcNAc(b1-3)Gal(b1-4)GlcNAc(b1-3)Gal(b1-4)GlcNAc(b1-6)]Man(a1-6)[Gal(b1-4)GlcNAc(b1-3)Gal(b1-4)GlcNAc(b1-3)Gal(b1-4)GlcNAc(b1-3)Gal(b1-4)GlcNAc(b1-2)Man(a1-3)]Man(b1-4)GlcNAc(b1-4)[Fuc(a1-6)]GlcNAc
Procedure, shortened: as §1

[18] = biological target: Gal(b1-4)GlcNAc(b1-3)Gal(b1-4)GlcNAc(b1-3)Gal(b1-4)GlcNAc(b1-3)Gal(b1-4)GlcNAc(b1-3)Gal(b1-4)GlcNAc(b1-2)Man(a1-3)[Gal(b1-4)GlcNAc(b1-3)Gal(b1-4)GlcNAc(b1-3)Gal(b1-4)GlcNAc(b1-3)Gal(b1-4)GlcNAc(b1-3)Gal(b1-4)GlcNAc(b1-2)Man(a1-6)]Man(b1-4)GlcNAc(b1-4)GlcNAc
Procedure, shortened: as §1

[19] = biological target: Gal(b1-4)GlcNAc(b1-3)Gal(b1-4)GlcNAc(b1-3)Gal(b1-4)GlcNAc(b1-3)Gal(b1-4)GlcNAc(b1-3)Gal(b1-4)GlcNAc(b1-2)Man(a1-3)[Gal(b1-4)GlcNAc(b1-3)Gal(b1-4)GlcNAc(b1-3)Gal(b1-4)GlcNAc(b1-3)Gal(b1-4)GlcNAc(b1-3)Gal(b1-4)GlcNAc(b1-2)Man(a1-6)]Man(b1-4)GlcNAc(b1-4)[Fuc(a1-6)]GlcNAc
Procedure, shortened: as §1

[20] = biological target: Gal(b1-4)GlcNAc(b1-3)Gal(b1-4)GlcNAc(b1-3)Gal(b1-4)GlcNAc(b1-3)Gal(b1-4)GlcNAc(b1-3)Gal(b1-4)GlcNAc(b1-2)[Gal(b1-4)GlcNAc(b1-3)Gal(b1-4)GlcNAc(b1-3)Gal(b1-4)GlcNAc(b1-3)Gal(b1-4)GlcNAc(b1-3)Gal(b1-4)GlcNAc(b1-6)]Man(a1-6)[Gal(b1-4)GlcNAc(b1-3)Gal(b1-4)GlcNAc(b1-3)Gal(b1-4)GlcNAc(b1-3)Gal(b1-4)GlcNAc(b1-3)Gal(b1-4)GlcNAc(b1-2)Man(a1-3)]Man(b1-4)GlcNAc(b1-4)[Fuc(a1-6)]GlcNAc
Procedure, shortened: as §1

[21] = biological target: Gal(b1-4)GlcNAc(b1-3)Gal(b1-4)GlcNAc(b1-3)Gal(b1-4)GlcNAc(b1-3)Gal(b1-4)GlcNAc(b1-3)Gal(b1-4)GlcNAc(b1-3)Gal(b1-4)GlcNAc(b1-2)Man(a1-3)[Gal(b1-4)GlcNAc(b1-3)Gal(b1-4)GlcNAc(b1-3)Gal(b1-4)GlcNAc(b1-3)Gal(b1-4)GlcNAc(b1-3)Gal(b1-4)GlcNAc(b1-3)Gal(b1-4)GlcNAc(b1-2)Man(a1-6)]Man(b1-4)GlcNAc(b1-4)GlcNAc
Procedure, shortened: as §1

[22] = biological target: Gal(b1-4)GlcNAc(b1-3)Gal(b1-4)GlcNAc(b1-3)GalNAc
Procedure, shortened: as §1

[23] = biological target: Gal(b1-4)GlcNAc(b1-3)Gal(b1-4)GlcNAc(b1-3)[Gal(b1-4)GlcNAc(b1-3)Gal(b1-4)GlcNAc(b1-6)]GalNAc
Procedure, shortened: as §1

B1: PX9937B-bvu-524-33-524 (Bacteroides vulgatus) (protein)
chain: GTAYWKNPDQFTAFNTGLHALLREKSYNFFLLGEPRADIYGDNPIGGEASQGMERLPFNTINKENVGISNYGDMYKIINQINQMIAKTTETTILTEATQNYYLGEAYGMRAYLYFHLLRSWGDVVLYLDYTEGQNLDLSNITKGVSPATEVMEQIKKDIQASENAFGSDYSFKLGRHFWSAAATQMLKGEAYLWSGRQMNGGNSDYTIAKNAFENVKKADVGLVTSSFKDIFSFENKKNKEMIFTIHNGKDEYEMWGGYYRMRLIPAQDKMVKIYCDENGNSFVGTPDAQLNGLTQLQVRREFYFKGFRNNDTRWTTSLKAVYKKDAQGVVSYFGPITYKFQGTMLEGGSTRSFLDDFPIYRYADCLLQLAMAKVLLGEDPTEEINAVRERAYGSKYFNEHKAEIAYPNDNDPEFYTDNKWMKPDNAGALEAILKERLREFMFEGKRWYDIRLLGWDYVHQYSSAEQSRLLWPIDAGTLTNNSALKQTPGYE
glycan array binding signal (z-score) [1]: -0.405 | glycan array binding signal (z-score) [2]: 0.073 | glycan array binding signal (z-score) [3]: -0.08 | glycan array binding signal (z-score) [4]: -0.318 | glycan array binding signal (z-score) [5]: -0.24 | glycan array binding signal (z-score) [6]: -0.12 | glycan array binding signal (z-score) [7]: 2.05 | glycan array binding signal (z-score) [8]: 1.48 | glycan array binding signal (z-score) [9]: 1.45 | glycan array binding signal (z-score) [10]: 0.249 | glycan array binding signal (z-score) [11]: -0.248 | glycan array binding signal (z-score) [12]: 1.42 | glycan array binding signal (z-score) [13]: 2.54 | glycan array binding signal (z-score) [14]: -0.069 | glycan array binding signal (z-score) [15]: 1.49 | glycan array binding signal (z-score) [16]: 1.61 | glycan array binding signal (z-score) [17]: 0.204 | glycan array binding signal (z-score) [18]: 8.61 | glycan array binding signal (z-score) [19]: 1.41 | glycan array binding signal (z-score) [20]: 1.71 | glycan array binding signal (z-score) [21]: 0.187 | glycan array binding signal (z-score) [22]: 0.009 | glycan array binding signal (z-score) [23]: 0.138
